Measurements reported in the RNAGym collection of RNA variant scans (doi:10.7554/elife.90254).
The source gives no read counts; variants with many changes may rest on few reads.

B1: LINE1-full (parent)
chain: UACGUAGGUGGUUUUCCCCUGAUAGUGCUAAGGGGGCCUGGAAGUUUGGACUGGGCAGAGCUCAACACAGCGUGGCAAAGUGGCUGUGGCUAGACUGCCUCUCUGGAUUCCUCGUCACUCAGCAGGGCAUCUCUGAGAGAAAUGCC

Variants of: B1
Experiment: self-cleavage, relative activity (ratio to wild type); higher = more cleavage; in vitro, sequencing; the parent is a self-cleaving ribozyme

Row | Variant | self-cleavage
1 | UACGUAGGUGGUUUUCCCCUGAUAGUGCUAAGGGGGCCUGGAAGUUAGGACUGGGCAGAGCUCAGCACAGCGUGGCAAAGUGGCUUUGGCUAGACUGCCUCUCUGGAUUCCUCGUCACUCAGCAGGGCAUCUCUGGGAGAAAUGCC [U47A A65G G86U A136G] | 0.03
2 | UACGUAGGUGGUUUUCCCCUGAUAGUGCUAAGGGGGCCUGGAAGUUAGGACUGGGCAGAGCUCAGCACAGCGUGGCAAAGUGGCUGUGGCUAGACUGCCUCUCUGGAUUCCACGUCACUCUGCAGGGCAUCUCUGAGAGAAAUGCC [U47A A65G U112A A121U] | 0.03
3 | UACGUAGGUGGUUUUCCCCUGAUAGUGCUAAGGGGGCCUGGAAGUUAGGACUGGGCAGAGCUCAACACGGCGUGGCAAAGUGGCUGUGGCUAGGCUGCCUCUCUGGAUACCUCGUCACUCAGCAGGGCAUCUCUGAGAGAAAUGCC [U47A A69G A94G U109A] | 0.17
4 | UACGUAGGUGGUUUUCCCCUGAUAGUGCUAAGGGGGCCUGGAAGUUAGGACUGGGCAGAGCUCAACACAGCGUGGCCAAGUGGCCGUGGCUAGACUGCCUCUCUGGACUCCUCGUCACUCAGCAGGGCAUCUCUGAGAGAAAUGCC [U47A A77C U85C U108C] | 0.12
5 | UACGUAGGUGGUUUUCCCCUGAUAGUGCUAAGGGGGCCUGGAAGUUAGGACUGGGCAGAGCUCAACACAGCGUGGCGAAGUGGCUGUGGCUAGACUGCCUCCCUGGAUUCCUCGUCACUCAGCAGGGCAUCUCUGAGAGAAAUGCC [U47A A77G U102C] | 1.45
6 | UACGUAGGUGGUUUUCCCCUGAUAGUGCUAAGGGGGCCUGGAAGUUAGGACUGGGCAGAGCUCAACACAGCGUGGCAAGGUGGCUGUGGCUAGACUGCCUCUCUGGAUUCCUCGUCACUCAGCAGGGCAUCUCUGAGAGAAGUGCC [U47A A79G A142G] | 1.12
7 | UACGUAGGUGGUUUUCCCCUGAUAGUGCUAAGGGGGCCUGGAAGUUAGGACUGGGCAGAGCUCAACACAGCGUGGCAAGGUGGCUGUGGCUAGACUGCCUCUAUGGAUUCCUCGUCACUCAGCAGGGCAUCUCUGAGAGAAAUGCC [U47A A79G C103A] | 1.84
8 | UACGUAGGUGGUUUUCCCCUGAUAGUGCUAAGGGGGCCUGGAAGUUAGGACUGGGCAGAGCUCAACACAGCGUGGCAAGGUGGCUGUGGCUAGACUGCCCCUCUGGAUUCCUCGUCACUCAGCAGGGCAUCUCUGAGAGAAAUGCC [U47A A79G U100C] | 0.92
9 | UACGUAGGUGGUUUUCCCCUGAUAGUGCUAAGGGGGCCUGGAAGUUAGGACUGGGCAGAGCUCAACACAGCGUGGCAAGGUGGCUGUGGCUAGACUGCCCCUCUGGAUUCCUCGUCACACAGCAGGGCAUCUCUGAGUGAAAUGCC [U47A A79G U100C U119A A138U] | 1.17
10 | UACGUAGGUGGUUUUCCCCUGAUAGUGCUAAGGGGGCCUGGAAGUUAGGACUGGGCAGAGCUCAACACAGCGUGGCAAAGUGGCUGUGGCUAGACUGCCUCUCUGGAUUCCUCGUCACUCGGCAGGGCACCUCUGAGAGAAAUGCC [U47A A121G U130C] | 2.35
11 | UACGUAGGUGGUUUUCCCCUGAUAGUGCUAAGGGGGCCUGGAAGUUAGGACUGGGCAGAGCUCAACACAGCGUGGCAAAGUGGCUGUGGCUAGACUGCCUCUCUGGAUUCCUCGUCACUCAGCGGGGCAUCCCUGAGAGAAAUGCC [U47A A124G U132C] | 0.51
12 | UACGUAGGUGGUUUUCCCCUGAUAGUGCUAAGGGGGCCUGGAAGUUAGGACUGGGCAGAGCUCAACACAGCGUGGCAAAGUGGCUGUGGCUAGACUGCCUCUCUGGAUUCCUCGUCACUCAGCAGGGCGCCUCUGAGAGAAAUGCC [U47A A129G U130C] | 1.69
13 | UACGUAGGUGGUUUUCCCCUGAUAGUGCUAAGGGGGCCUGGAAGUUAGGACUGGGCAGAGCUCAACACAGCGUGGCAAAGUGGCUGUGGCUAGACUGCCUCUCUGGAUUCCUCGUCACUCAGCAGGGCUUCUCUGGGAGAAAUGCC [U47A A129U A136G] | 1.53
14 | UACGUAGGUGGUUUUCCCCUGAUAGUGCUAAGGGGGCCUGGAAGUUAGGACUGGGCAGAGCUCAACACAGCGUGGCAAAGUGGCUGUGGCUAGACUGCCUCUCUGGAUUCCUCGUCACUCAGCAGGGCAUCUCUGAGGGAGAUGCC [U47A A138G A141G] | 1.4
15 | UACGUAGGUGGUUUUCCCCUGAUAGUGCUAAGGGGGCCUGGAAGUUAGGACUGGGCAGAGCUCAACACAGCGUGGCAAAGUGGCUGUGGCUAGACUGCCUCUCUGGAUUCCUCGUCACUCAGCAGGGCAUCUCUGAGAGGAGUGCC [U47A A140G A142G] | 1.33
16 | UACGUAGGUGGUUUUCCCCUGAUAGUGCUAAGGGGGCCUGGAAGUUAGGACUGGGCAGAGUUCAACACAGCGUGGCAAAGUGGCUGUGGCUAGACUGCCUCUCUGGACUCCUCGUCACUCAGCAGGGCAUCUCUGAGAGAAAUGCC [U47A C61U U108C] | 0.05
17 | UACGUAGGUGGUUUUCCCCUGAUAGUGCUAAGGGGGCCUGGAAGUUAGGACUGGGCAGAGCUCAAUACAGCGUGGCAAAGUGGCUGUGGCCAGACUGCCUCUCUGGAUUCCUCGUCACUCAGCAGGGCAUCUCUGAGAGAAAUGCC [U47A C66U U91C] | 0.03
18 | UACGUAGGUGGUUUUCCCCUGAUAGUGCUAAGGGGGCCUGGAAGUUAAGACUGGGCAGAGCCCAACACAGCGUGGCAAAGUGGCUGUGGCUAGACUGACUCUCUGGAUUCCUCGUCACUCAGCAGGGCAUCUCUGAGGGAAAUGCC [U47A G48A U62C C98A A138G] | 0.02
19 | UACGUAGGUGGUUUUCCCCUGAUAGUGCUAAGGGGGCCUGGAAGUUAGAACUGGGCAGAGCUCUACACAGCGUGGCAAAGUGGCUGUGGCUAGACUGCCUCUCUGGAUUCCUCGGCACUCAGCAGGGCAUCUCUGAGAGAAAUGCC [U47A G49A A64U U115G] | 0.4
20 | UACGUAGGUGGUUUUCCCCUGAUAGUGCUAAGGGGGCCUGGAAGUUAGUACUGGGCAGAGCUCAACACAGCGUGGCAAAGUGGCUGUGGCUAGACUGCCUCUCUGGAUUCCUCGUCGCUCAGCAGGGCAUCUCUGAGAGAAAUGCC [U47A G49U A117G] | 0.72

Row | Variant | self-cleavage
21 | UACGUAGGUGGUUUUCCCCUGAUAGUGCUAAGGGGGCCUGGAAGUUAGGACUGGGCAGAGCUCAACACAGCCUGGCAAAGUGGCUGUGGCUAGACUGCCUCUCUGGAUUCCUCGUCUCUCAGCAGGGCAUCUCUGAGAGAAAUGCC [U47A G72C A117U] | 0.98
22 | UACGUAGGUGGUUUUCCCCUGAUAGUGCUAAGGGGGCCUGGAAGUUAGGACUGGGCAGAGCUCAACACAGCGUGGCAAAAUGGCUGUGGCUAGACUGCCUCUCUGGAUUCCUCGUCACUCAGCAGGGCAUCUCUGAGAGAAGUGCC [U47A G80A A142G] | 1.66
23 | UACGUAGGUGGUUUUCCCCUGAUAGUGCUAAGGGGGCCUGGAAGUUAGGACAGGGCAGAGCCCAACACAGCGUGGCAAAGUGGCUGUGGCUAGACUGCCUCUCUGGAUUCCUCGUCACUCAGCAGGGCAUCUCUGAGAGAGAUGCC [U47A U52A U62C A141G] | 0.02
24 | UACGUAGGUGGUUUUCCCCUGAUAGUGCUAAGGGGGCCUGGAAGUUAGGACAGGGCAGAGCUCAACACAGCGUGGCAAAGUGGCUGAGGCUAGACUGCCUCUCUGGAUUCCUCGUCACUCAGCAGGGCAUCUCUGAGAGAAAUGCC [U47A U52A U87A] | 0.09
25 | UACGUAGGUGGUUUUCCCCUGAUAGUGCUAAGGGGGCCUGGAAGUUAGGACCGGGCAGAGCUCAACACAGCGUGGCAAAGUGGCUGUGGCUAGACUGCCUCUCUAGAUUCCUCGUCACUCAGCAGGGCAUCUCUGAGAGAAAUGCC [U47A U52C G105A] | 1.15
26 | UACGUAGGUGGUUUUCCCCUGAUAGUGCUAAGGGGGCCUGGAAGUUAGGACCGGGCAGAGCCCAACACAGCGUGGCAAAGUGGCUGUGGCUAGACUGCCUCUCUGGAUUCCUCGUCACUCAGCAGGGCAUCUCUGAGAGAAAUGCC [U47A U52C U62C] | 0
27 | UACGUAGGUGGUUUUCCCCUGAUAGUGCUAAGGGGGCCUGGAAGUUAGGACUGGGCAGAGCCCAACACGGCGUGGCAAAGUGGCUGUGGCUAGACUGCCUCUCUGGAUUCCUCGUCACUCAGCAGGGCAUCUCUGAGAGAAAUGCC [U47A U62C A69G] | 0.02
28 | UACGUAGGUGGUUUUCCCCUGAUAGUGCUAAGGGGGCCUGGAAGUUAGGACUGGGCAGAGCCCAACACUGCGUGGCAAAGUGGCCGUGGCUAGACUGCCUCUCUGGAUUCCUCGUCACUCAGCAGGGCAUCUCUGAGAGAAAUGCC [U47A U62C A69U U85C] | 0
29 | UACGUAGGUGGUUUUCCCCUGAUAGUGCUAAGGGGGCCUGGAAGUUAGGACUGGGCAGAGCCCAACACAGCGUGGCAAAGUGGCUGUGGCUAGACUGCCUCUCUGGAUUCCUCGUCACACAGCAGGGCAUCUCUGAGAGAAAUGCC [U47A U62C U119A] | 0.03
30 | UACGUAGGUGGUUUUCCCCUGAUAGUGCUAAGGGGGCCUGGAAGUUAGGACUGGGCAGAGCCCAACACAGCGUGGCAAAGUGGCUGUGGCUAGACUGCCUCUCUGGAUUCCUCGUCACACAGCAGGGCAUCCCUGGGAGAAAUGCC [U47A U62C U119A U132C A136G] | 0
31 | UACGUAGGUGGUUUUCCCCUGAUAGUGCUAAGGGGGCCUGGAAGUUAGGACUGGGCAGAGCCCAACACAGCGUGGCAAAGUGGCUGUGGCUAGACUGCCUCUCUGGAUUCCUCGUCACUCAGCAGGGCAUCCCUGAGGGAAAUGCC [U47A U62C U132C A138G] | 0
32 | UACGUAGGUGGUUUUCCCCUGAUAGUGCUAAGGGGGCCUGGAAGUUAGGACUGGGCAGAGCGCAACACAGCGUGGCGAAGUGGCUGUGGCUAGACUGCCUCUCUGGAUUCCUCGUCACUCAGCAGGGCAUCUCUGAGAGAGAUGCC [U47A U62G A77G A141G] | 0.07
33 | UACGUAGGUGGUUUUCCCCUGAUAGUGCUAAGGGGGCCUGGAAGUUAGGACUGGGCAGAGCUCAACACAGCGAGGCUAAGUGGCUGUGGCUAGACUGCCUCUCUGGGUUCCUCGUCACUCAGCAGGGCAUCUCUGGGAGAAAUGCC [U47A U73A A77U A107G A136G] | 2.15
34 | UACGUAGGUGGUUUUCCCCUGAUAGUGCUAAGGGGGCCUGGAAGUUAGGACUGGGCAGAGCUCAACACAGCGAGGCAAAGUGGCUGUGGCUAGACUGCCCCUCUGGAUUCCUCGUCACUCAGCAGGGCAUCUCUGAGAGAAAAGCC [U47A U73A U100C U143A] | 2.64
35 | UACGUAGGUGGUUUUCCCCUGAUAGUGCUAAGGGGGCCUGGAAGUUAGGACUGGGCAGAGCUCAACACAGCGCGGCAAAGUGGCUGUGGCUAGACUGCCUCUCUGGAUUCCUCGUCACUCUGCAGGGCAUCUCUGAGAGAAAUGCC [U47A U73C A121U] | 1.61
36 | UACGUAGGUGGUUUUCCCCUGAUAGUGCUAAGGGGGCCUGGAAGUUAGGACUGGGCAGAGCUCAACACAGCGCGGCAAAGUGGCUGUGGCUAGACUGCCUCUCUGGAUUCCUCGUCACUCACCAGGGCAUCUCUGAGAGAAAUGCC [U47A U73C G122C] | 1.77
37 | UACGUAGGUGGUUUUCCCCUGAUAGUGCUAAGGGGGCCUGGAAGUUAGGACUGGGCAGAGCUCAACACAGCGUGGCAAAGCGGCUGUGGCUAGACUGCCUCUCUGGAUGCCUCGUCACUCAGCAGGGCAUCUCUGAGAGAAAUGCC [U47A U81C U109G] | 0
38 | UACGUAGGUGGUUUUCCCCUGAUAGUGCUAAGGGGGCCUGGAAGUUAGGACUGGGCAGAGCUCAACACAGCGUGGCAAAGUGGCAGUGGCUAGACUGCCUCUCUGGAUUCCUCGUCACUCAGCAGGGCAUCUCUGAGUGAAAUGCC [U47A U85A A138U] | 0.1
39 | UACGUAGGUGGUUUUCCCCUGAUAGUGCUAAGGGGGCCUGGAAGUUAGGACUGGGCAGAGCUCAACACAGCGUGGCAAAGUGGCAGUGGCUAGACUGCCUCUCUGGAUUCCUCAUCACUCAGCAGGGCAUCUCUGAGAGAAAUGCC [U47A U85A G114A] | 0.07
